# From PubChem BioAssay AID588453 (National Center for Advancing Translational Sciences (NCATS), 2011)
# Among all 390,000 compounds or so, about 4,000 (1%) were called active. This list was built around the results that the source calls inconclusive (neither active nor inactive); the mix of calls is not that of the screen. The call rests on the fitted dose curve; in most records, active means well fitted inhibition curve with a large enough effect; inconclusive means small, poorly fitted or top-dose-only effect; inactive means no such curve, though single readings can be large or run the other way. Potencies beside an inconclusive call are fits to weak or partial responses and may not hold up.
# Target: Thioredoxin reductase 1, cytoplasmic (Rattus norvegicus) (UniProt O89049)
# Sequence of UniProt O89049 (O89049 whole entry, looked up): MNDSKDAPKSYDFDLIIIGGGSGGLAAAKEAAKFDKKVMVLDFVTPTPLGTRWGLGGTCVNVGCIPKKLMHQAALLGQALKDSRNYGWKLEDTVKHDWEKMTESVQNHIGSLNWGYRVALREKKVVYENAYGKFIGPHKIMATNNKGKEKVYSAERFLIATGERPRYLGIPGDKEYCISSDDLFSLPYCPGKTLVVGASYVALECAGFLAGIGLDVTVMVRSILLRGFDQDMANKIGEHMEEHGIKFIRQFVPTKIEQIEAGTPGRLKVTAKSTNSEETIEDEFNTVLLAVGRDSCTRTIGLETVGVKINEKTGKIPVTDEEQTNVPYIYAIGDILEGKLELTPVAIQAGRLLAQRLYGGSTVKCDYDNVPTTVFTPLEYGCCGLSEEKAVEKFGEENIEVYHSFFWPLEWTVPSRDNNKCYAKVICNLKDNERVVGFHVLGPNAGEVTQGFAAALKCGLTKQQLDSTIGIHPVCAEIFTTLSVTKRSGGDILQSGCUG
# Assay: qHTS Assay for Inhibitors of Mammalian Selenoprotein Thioredoxin Reductase 1 (TrxR1): qHTS; further: nearly all actives have a fitted effect of over 65% in size
# Details: recombinant rTrxR1, NADPH fluorescence consumption, selenite substrate; series mostly up to 114 µM; activity change, negative = inhibition: at the top concentration
# In short: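 Rat TrxR1 (90 nM in the dispensed reagent) was pre-reduced with 400 uM NADPH for 5 min at room temperature, then incubated with compound for 15 min. After 400 uM selenite was added, NADPH fluorescence (Ex 340/Em 450 nm) was followed for 8 min.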
# On the % scale 0 is the no-effect control and ±100 the full control effect; potency means the concentration at half of the fitted maximal effect; tags describe the fitted curve by direction and shape.
Compound,"activity change, negative = inhibition",Potency
CC(C)(C)S(=O)(=O)c1ccc2nc3c(n2c1)CCCC3,inactive: 0.682%,
Cc1ccn2c(Nc3ccccc3C)c(-c3ccc(N4CCOCC4)cc3)nc2c1,,"inconclusive: 39.8 µM [inhibitor, full curve]"
Cc1cc(Br)c(S(=O)(=O)NCCN2CCOCC2)cc1C,,"inconclusive: 39.8 µM [inhibitor, partial curve, poor fit]"
O=C1/C(=C\c2cccc([N+](=O)[O-])c2O)SC(=S)N1Cc1ccccc1,,"inconclusive: 50.1 µM [inhibitor, partial curve, poor fit]"
Cc1cc(=O)oc2cc(NC(=O)C(C)N3C(=O)C4CCCCC4C3=O)ccc12 (stereo not given),,"inconclusive: 79.4 µM [inhibitor, single point]"
Cc1[nH][nH]c(=O)c1C(c1c(C)[nH][nH]c1=O)c1cn(Cc2ccc(Cl)c(Cl)c2)c2ccccc12,,"inconclusive: 39.8 µM [inhibitor, partial curve]"
Cc1ccc(C#N)c(SCc2cc3c(cc2Cl)OCO3)n1,,"inconclusive: 79.4 µM [inhibitor, partial curve, poor fit]"
Cc1cc(C)c(S(=O)(=O)NCCSCc2ccco2)c(C)c1,,"inconclusive: 28.2 µM [inhibitor, full curve]"
FC(F)(F)c1ccccc1NC(=S)Nc1cccc(Cl)c1,,"inconclusive: 31.6 µM [inhibitor, single point]"
CC(C)C1=NN2C(=N)CC(=O)N=C2S1,,"inconclusive: 3.16 µM [inhibitor, partial curve]"
O=C(CSc1ccccc1C(=O)O)c1ccc([N+](=O)[O-])cc1,inactive: -15.9%,
NC(=O)c1ccsc1NC(=O)CCS(=O)(=O)c1ccccc1,inactive: 8.21% [at 57.1 µM],
COc1ccc(OC)c(NC(=O)c2nc(S(=O)(=O)Cc3ccccc3)ncc2Cl)c1,,active: 3.55 µM
O=C(C[n+]1cccc(Br)c1)c1cc(Cl)ccc1Cl,,active: 11.2 µM
O=C(NCC(c1cccnc1)N1CCN(c2ccccc2F)CC1)OCc1ccccc1 (stereo not given),inactive: 1.33% [at 57.1 µM],
Cc1ccc(-c2nc(CSCC(=O)N3CCN(C(=O)c4ccco4)CC3)c(C)o2)cc1,,"inconclusive: 22.4 µM [inhibitor, partial curve, poor fit]"
CCCCCn1c(=O)[nH]c2cc(C(=O)N3CCN(c4cccc(Cl)c4)CC3)ccc2c1=O,inactive: 6.96% [at 2.29 µM],
Clc1ccccc1CSc1nnc(-c2cccnc2)n1Cc1ccco1,,active: 25.1 µM
CN(c1ccccc1)S(=O)(=O)c1nnc(NC(=O)c2ccco2)s1,,"inconclusive: 56.2 µM [inhibitor, partial curve]"
Cc1ccccc1NC(=S)NCCc1ccccn1,,"inconclusive: 79.4 µM [inhibitor, single point]"
CCC(=O)Nc1cc(C)c(NC(=O)c2ccccc2OC)cn1,inactive: 3.61%,
COc1ccc(C2CC(=O)N3CN(c4ccc(C)c(Cl)c4)CSC3=C2C#N)cc1OC (stereo not given),,"inconclusive: 10 µM [inhibitor, partial curve]"
O=C(O)CCc1c2ccc(=O)c(O)c-2oc2c(O)c(O)ccc12,,active: 56.2 µM
CC1=NN(c2ccccc2)C(=O)C1C(=O)c1ccc(Cl)cc1 (stereo not given),inactive: 24.6%,

Compound,"activity change, negative = inhibition",Potency
O=S1(=O)C[C@@H](N2CCOCC2)[C@H](N2CCOCC2)C1,,"inconclusive: 39.8 µM [inhibitor, single point]"
Cc1c(Cl)cccc1NC(=S)NCCN1CCOCC1,inactive: -9.79%,
COC(=O)C1CC23C=CCN4CCC5(c6ccccc6NC15C2C)C43 (stereo not given),,"inconclusive: 79.4 µM [inhibitor, single point]"
O=C(c1ccco1)N1CCN(C(c2ccccc2F)c2nnnn2Cc2cccs2)CC1 (stereo not given),,"inconclusive: 70.8 µM [inhibitor, partial curve]"
CC(C)C(CCNC(=O)CN1C(=O)c2ccccc2C1=O)c1ccco1 (stereo not given),,"inconclusive: 89.1 µM [inhibitor, single point]"
NS(=O)(=O)c1ccc(CCNC(=O)C2Cc3ccccc3CN2C(=O)c2ccco2)cc1 (stereo not given),,"inconclusive: 56.2 µM [inhibitor, partial curve, poor fit]"
Cc1ccc(NC(=S)NC2CC3CCC(C2)N3Cc2ccco2)c(C)c1 (stereo not given),,"inconclusive: 56.2 µM [inhibitor, partial curve, poor fit]"
CCOc1ccc(CNC(c2ccccc2)c2ccccc2)cc1,,"inconclusive: 89.1 µM [inhibitor, single point]"
COc1ccc(C(=O)Nc2ccc(N3CCN(c4ccccc4)CC3)c(C(=O)O)c2)cc1,inactive: 16.2% [at 57.1 µM],
FC(F)(F)c1cnc(-c2cnc3c(-c4ccc(Cl)cc4)cnn3c2)c(Cl)c1,inactive: -4.15%,
COc1ccccc1Cn1c(=S)[nH]c2cc(C(=O)NCCN(C)C)ccc2c1=O,inactive: -16.1%,
O=C(CCl)Nc1cccc2ncccc12,,active: 50.1 µM
COc1cc(/C=C2\CCCc3c2nc2ccccc2c3C(=O)O)cc(OC)c1O,,"inconclusive: 56.2 µM [inhibitor, partial curve]"
CCC1(CC)NC(=O)N(CC(=O)Nc2sc3c(c2C(N)=O)CCC3)C1=O,,"inconclusive: 31.6 µM [inhibitor, single point]"
Cc1cccc(-c2n[nH]c(=S)n2-c2ccccc2)c1[N+](=O)[O-],,"inconclusive: 11.2 µM [inhibitor, partial curve, poor fit]"
COc1cc(NC(=S)Nc2cccnc2)cc(OC)c1OC,,"inconclusive: 28.2 µM [inhibitor, partial curve]"
O=C(Oc1ccc(N(C(=O)c2ccncc2)S(=O)(=O)c2ccc(F)cc2)cc1)c1ccncc1,,active: 35.5 µM
CCc1nnc(SCC(=O)Nc2ccc(Cl)cc2F)c2cc3occc3n12,inactive: -10.6%,
O=C(N/N=C/c1ccc2c(c1)OCO2)/C(=C/c1ccc2c(c1)OCO2)NC(=O)c1ccccc1,,"inconclusive: 89.1 µM [inhibitor, single point]"
COc1ccc(/C=C/C(=O)O)cc1S(=O)(=O)NCc1ccco1,inactive: -1.87%,
Cc1ccc(S(=O)(=O)N2CCN(C)CC2)c2nsnc12,inactive: -8.69%,
Nc1nnc(CC(=O)N/N=C/c2cccc([N+](=O)[O-])c2)s1,,"inconclusive: 79.4 µM [inhibitor, single point]"
COc1ccc(C(=O)Nc2cccc(/C(C)=N\NC(=O)c3ccoc3C)c2)cc1OC,,"inconclusive: 5.62 µM [inhibitor, partial curve]"
CC(C)(C)n1ncc2c(=O)n(Cc3cccc(OC(F)F)c3)cnc21,inactive: 14.6%,

Compound,"activity change, negative = inhibition",Potency
CCn1c(N2CCN(S(=O)(=O)c3ccccc3C(F)(F)F)CC2)nc2ccccc21,,"inconclusive: 3.16 µM [inhibitor, partial curve]"
CCOC(=O)c1ccc(NC(=O)CC2Nc3cccc4cccc(c34)NC2=O)cc1 (stereo not given),,"inconclusive: 63.1 µM [inhibitor, partial curve, poor fit]"
C/C(=N\NC(N)=S)c1ccccc1,,"inconclusive: 44.7 µM [inhibitor, partial curve]"
CO/N=C/C(C#N)c1ncc(C(F)(F)F)cc1Cl (stereo not given),inactive: -8.42%,
COc1cc(-c2n[nH]c(=S)n2-c2cccc(C(F)(F)F)c2)cc(OC)c1OC,,"inconclusive: 44.7 µM [inhibitor, partial curve]"
Cc1cccn2c3c(c(=O)nc12)C(c1ccc(F)cc1)CC(=O)N3 (stereo not given),inactive: 59.3% [at 57.1 µM],
Cc1[nH]cnc1C(=O)N/N=C/c1ccc([N+](=O)[O-])s1,,"inconclusive: 44.7 µM [inhibitor, partial curve, poor fit]"
CCOC(=O)CCc1c(C)c2ccc3c(c2oc1=O)CN(CCCO)CO3,,"inconclusive: 89.1 µM [inhibitor, single point]"
CC(=O)c1ccc(N2CCC(C(=O)O)CC2)cc1,inactive: 8.71%,
CCOC(=O)c1ccc(N2CN(C3CCCCC3)CNC2=S)cc1,,"inconclusive: 79.4 µM [inhibitor, partial curve]"
O=C(COC(=O)c1cc([N+](=O)[O-])ccc1NCCO)Nc1ccc2c(c1)OCO2,inactive: 14% [at 57.1 µM],
CC(=O)Oc1ccc2oc(/C=C/N(C)C)c([N+](=O)[O-])c2c1,,"inconclusive: 89.1 µM [inhibitor, single point]"
CC(C)n1nnnc1SCC(=O)NCc1ccco1,,"inconclusive: 28.2 µM [inhibitor, single point]"
O=C(/C=C/c1ccc([N+](=O)[O-])cc1)Oc1ccc(/C=N/NC(=O)c2ccncc2)cc1,,active: 35.5 µM
Cc1ccc(/C=C/C(=O)Nc2ccc(Oc3ccccc3)cc2)o1,,"inconclusive: 14.1 µM [inhibitor, full curve]"
COC(=O)CN1C(=O)[C@H]2[C@@H](c3ccc(C)o3)N3C(=O)CN(CC4CC4)C(=O)[C@@]3(C)[C@H]2C1=O,,"inconclusive: 12.6 µM [inhibitor, full curve]"
O=C(Cc1ccc(Cl)cc1)NNC(=S)NC(=O)c1cccs1,,"inconclusive: 39.8 µM [inhibitor, single point]"
COC(=O)c1cc(NC(=O)c2sc3ccccc3c2Cl)cc(C(=O)OC)c1,,"inconclusive: 89.1 µM [inhibitor, single point]"
O=C1NC(=Nc2ccccc2)S/C1=C\C=C\c1ccco1,,active: 79.4 µM
CCOC(=O)C1CCN(C(c2ccc(C)cc2)c2c(O)cc(C)n(CCOC)c2=O)CC1 (stereo not given),,"inconclusive: 11.2 µM [inhibitor, partial curve, poor fit]"
O=S1(=O)CCC(NC(=S)Nc2ccc(Cl)cc2)C1 (stereo not given),,"inconclusive: 25.1 µM [inhibitor, full curve, poor fit]"
CCO/C([O-])=N/c1c[n+](N2CCOCC2)no1,,"inconclusive: 26.7 µM [inhibitor, partial curve, poor fit]"
